Among all 230,000 compounds or so, about 3,600 (1.6%) were called active. The inconclusive results got no clear call from the source; some entries with a clear call stand among them for comparison. Calls come from the whole dose curve; as a rule, active = well fitted inhibition curve with a large enough effect (not every such curve was filed as active); inconclusive = small, poorly fitted or top-dose-only effect, or another doubt; inactive = no such curve, though single readings can be large or run the other way. A potency beside an inconclusive call is a rough fit, not a confirmed value.
The compounds below were run against Lysine-specific demethylase 4E (Homo sapiens) (UniProt B2RXH2) (assay: qHTS Assay for Inhibitors of Human Jumonji Domain Containing 2E (JMJD2E)). Conditions: JMJD2E catalytic domain, FDH-coupled NADH fluorescence (FDH is formaldehyde dehydrogenase); series mostly up to 57.1 µM.
Chain of UniProt B2RXH2 (B2RXH2 whole entry, looked up, the tested form may be a part): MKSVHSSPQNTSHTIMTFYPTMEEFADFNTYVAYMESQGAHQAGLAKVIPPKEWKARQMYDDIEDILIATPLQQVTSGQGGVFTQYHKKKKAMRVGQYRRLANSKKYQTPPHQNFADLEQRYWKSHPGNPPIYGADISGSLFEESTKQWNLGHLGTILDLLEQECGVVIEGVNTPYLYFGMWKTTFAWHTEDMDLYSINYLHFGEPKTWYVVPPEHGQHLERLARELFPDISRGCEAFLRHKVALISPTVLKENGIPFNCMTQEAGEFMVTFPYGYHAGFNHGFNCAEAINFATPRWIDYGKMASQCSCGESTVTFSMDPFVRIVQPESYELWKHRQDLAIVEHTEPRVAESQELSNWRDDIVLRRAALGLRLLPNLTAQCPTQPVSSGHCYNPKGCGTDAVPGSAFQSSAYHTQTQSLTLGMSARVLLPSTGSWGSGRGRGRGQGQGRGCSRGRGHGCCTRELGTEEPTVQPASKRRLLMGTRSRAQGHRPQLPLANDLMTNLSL
Note: nearly all actives have a fitted effect of over 50% in size.
Potency is the fitted concentration of half-maximal effect; tags give direction and shape of the fitted curve.
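Throughout, for activity change, negative = inhibition: 0% = wells with enzyme and -100% = buffer wells without enzyme.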

| SMILES | Potency | activity change, negative = inhibition |
| --- | --- | --- |
| S=C(NCc1cccc(Cl)c1)NC1CCCCC1 | inactive |  |
| COc1cc(/C=C2/SC(=O)NC2=O)ccc1Oc1ccc([N+](=O)[O-])cc1[N+](=O)[O-] | inactive |  |
| O=C1NN(c2ccccc2)C(=O)/C1=C\c1ccccc1OCC(=O)N1CCOCC1 | inactive |  |
| CCc1nnc(NC(=O)c2c(OC)cccc2OC)s1 | inconclusive: 39.8 µM [inhibitor, single point] |  |
| COC(=O)C1=C(C)NC(C)=C(C(=O)OC)C1c1ccc(-c2cc(Cl)ccc2Cl)o1 | inconclusive: 35.5 µM [inhibitor, single point] |  |
| O=C(NCCCCCCNC(=O)c1ccc(Br)s1)c1ccc(Br)s1 | inconclusive: 39.8 µM [inhibitor, single point] |  |
| O=C(Oc1cccc2ccccc12)c1ccco1 | inactive |  |
| C=CCNC(=O)N1CCc2nc(COc3ccccc3)c3c(c2C1)CO[C@@H](C)C3 |  | inactive: 1.93% [at 11.4 µM] |
| COc1cc(/C=C(\C#N)c2nc3ccccc3[nH]2)ccc1OC(=O)c1ccco1 | inconclusive: 28.2 µM [inhibitor, partial curve] |  |
| CC(C)N(CCCNC(=O)CC1Oc2ccccc2NC1=O)Cc1ccccc1 (stereo not given) | inactive |  |
| Cc1cc2ccccc2n1CCNC(=O)C(C)(C)C | inconclusive: 39.8 µM [inhibitor, single point] |  |
| c1ccc(OCc2nn3c(-c4cccnc4)nnc3s2)cc1 | inconclusive: 39.8 µM [inhibitor, single point] |  |
| CCCCN(Cc1cc2cc(OC)ccc2[nH]c1=O)C(=O)c1ccccn1 | inconclusive: 31.6 µM [inhibitor, partial curve] |  |
| COc1cc(/C=C/C(=O)c2c(O)cc(C)oc2=O)cc(OC)c1O | inconclusive: 17.8 µM [inhibitor, partial curve] |  |
| Cc1ccc(S(=O)(=O)Nc2nc3ccccc3nc2NCc2ccco2)cc1 | inconclusive: 31.6 µM [inhibitor, single point] |  |
| CCNc1nc(NCC)nc(N/N=C/c2cc(OC)c(OC)c(OC)c2)n1 | inconclusive: 25.1 µM [inhibitor, single point] |  |
| O=C(OCC(=O)N1CCN(C(=O)c2ccco2)CC1)c1cc(-c2cccc(Br)c2)nc2ccccc12 | inconclusive: 35.5 µM [inhibitor, single point] |  |
| CCNC(=O)N1c2ccc(OCC)cc2C(C)=CC1(C)C | inconclusive: 28.2 µM [inhibitor, partial curve] |  |
| Cc1ccc(C2NC(=O)c3ccccc3N2)s1 (stereo not given) | inconclusive: 28.2 µM [inhibitor, partial curve] |  |
| Cc1ccc(C2NC(=O)NC3=C2CCc2ccccc23)cc1 (stereo not given) | inconclusive: 28.2 µM [inhibitor, partial curve] |  |
| O=C(CSc1ncccn1)NCc1ccc(F)cc1 | inactive |  |
| COCCNC(=O)c1ccc2c3n(nc2c1)-c1ccccc1CO3 | inconclusive: 28.2 µM [inhibitor, partial curve] |  |
| CC1CCN(C(c2ccc(N(C)C)cc2)c2nnnn2C(C)(C)C)CC1 (stereo not given) | inconclusive: 25.1 µM [inhibitor, partial curve] |  |
| O=C(CCC1CCCN(C(=O)C2=CCCCC2)C1)N1CCN(c2ccccn2)CC1 (stereo not given) | inconclusive: 28.2 µM [inhibitor, partial curve] |  |

| SMILES | Potency | activity change, negative = inhibition |
| --- | --- | --- |
| COc1cccc(/C=C/C(=O)OCC(=O)NCCc2ccccc2)c1 | inconclusive: 31.6 µM [inhibitor, partial curve] |  |
| Cc1nn2c(-c3ccccc3)c(-c3ccccc3)nc2[nH]c1=O | inconclusive: 39.8 µM [inhibitor, single point] |  |
| COc1ccc(CNC(=O)c2cnc3cc(C)ccn3c2=O)cc1 | inconclusive: 31.6 µM [inhibitor, single point] |  |
| CC(C)(C)c1cc(NC(=O)Nc2ccc(Br)cc2Cl)no1 | inconclusive: 31.6 µM [inhibitor, single point] |  |
| CCCC/C(O)=C/c1nc2ccccc2[nH]c1=O | inconclusive: 35.5 µM [inhibitor, single point] |  |
| CCC(C)NC(=O)c1ccc2c(SCC(=O)O)c3c(nc2c1)CCCC3 (stereo not given) | inconclusive: 39.8 µM [inhibitor, single point] |  |
| Fc1ccc(Cl)cc1/C=N/n1cnnc1SCc1ccccc1 | inconclusive: 39.8 µM [inhibitor, single point] |  |
| Cc1cc(N2CCOCC2)cc(C)[n+]1[O-] | inconclusive: 39.8 µM [inhibitor, single point] |  |
| CC1(C)C2CCC(C2)C1(C)NC(=O)CN1CCOCC1 (stereo not given) | inconclusive: 39.8 µM [inhibitor, single point] |  |
| COc1ccc2nc(NC(=O)c3cc(C)oc3C)sc2c1 | inconclusive: 28.2 µM [inhibitor, partial curve] |  |
| O=C(COC(=O)c1ccc[nH]c1=O)Nc1ccc(S(=O)(=O)N2CCCC2)cc1 | inconclusive: 39.8 µM [inhibitor, single point] |  |
| CC(=O)C1=C(O)C(=O)N(Cc2ccco2)C1c1ccccc1F (stereo not given) | inactive |  |
| CC(C)OCCCN1CN(S(=O)(=O)c2cccs2)c2nc3ccccc3nc21 | inconclusive: 31.6 µM [inhibitor, single point] |  |
| COc1ccc(NC(=S)N(CCc2c(C)[nH]c3ccc(C)cc23)Cc2ccco2)cc1 | inactive |  |
| O=c1c(/C=N/N2CCOCC2)c(C(F)(F)F)[nH]n1-c1ccccc1 | inactive |  |
| Cc1onc(-c2c(F)cccc2Cl)c1C(=O)N1CCN(c2ncccn2)CC1 | inconclusive: 39.8 µM [inhibitor, single point] |  |
| NC(=O)CC[C@@H]1NC(=O)[C@H](CO)NC(=O)c2cc([N+](=O)[O-])cc(I)c2NCC[C@@H](C(N)=O)NC(=O)[C@H](Cc2ccc(O)cc2)NC1=O | inconclusive: 25.1 µM [inhibitor, single point] |  |
| CC/C(=N/Nc1ccccc1C)c1cnnc(SC)n1 | inactive |  |
| C(=N\Nc1nc(-c2ccccc2)cs1)/c1cccs1 | inactive |  |
| Cc1cc(Nc2ccc(F)c(F)c2)nc(-c2ccccc2O)n1 | inconclusive: 39.8 µM [inhibitor, single point] |  |
| N#CC1=C(SCC(=O)c2ccccc2)NC2=C(C(=O)CCC2)C1c1ccco1 (stereo not given) | inconclusive: 4.47 µM [inhibitor, single point] |  |
| CCOC(=O)C1CCN(C(=O)CCNC(=O)Cn2ccc3ccccc3c2=O)CC1 | inconclusive: 39.8 µM [inhibitor, single point] |  |
| CC(=O)c1cccc(NC(=O)CCS(=O)(=O)c2ccc(Br)s2)c1 | inactive |  |
| COc1ccc2c(c1)oc(=O)c1ccccc12 | inconclusive: 28.2 µM [inhibitor, partial curve] |  |

| SMILES | Potency | activity change, negative = inhibition |
| --- | --- | --- |
| CC(C)(C)OC(=O)N1CCC(CNC(=O)c2ccccc2)CC1 | inconclusive: 35.5 µM [inhibitor, single point] |  |
| CCc1nc(N2CCCCC2C)c2oc3ccccc3c2n1 (stereo not given) | inconclusive: 39.8 µM [inhibitor, single point] |  |
| Cc1ccc(NC(=O)CSc2nc(N)cc(=O)[nH]2)cc1Cl | inactive |  |
| COc1ccc(/C=C/C(=O)c2ccc3c(c2)OCO3)c(OC)c1 | inconclusive: 39.8 µM [inhibitor, single point] |  |
| O=S(=O)(c1ccc(Nc2ccc(-c3ccc4c(c3)OCCO4)nn2)cc1)N1CCCC1 | inconclusive: 39.8 µM [inhibitor, single point] |  |
| CN(Cc1ccccc1)Cc1nc2scc(-c3ccccc3)c2c(=O)[nH]1 | inconclusive: 31.6 µM [inhibitor, single point] |  |
| CC(=O)Nn1c(-c2ccccc2)cc2ccccc21 | inconclusive: 12.6 µM [inhibitor, partial curve] |  |
| COc1ccc(CNC(=O)Cn2cc([N+](=O)[O-])nc2C)cc1 | inactive |  |
| O=[N+]([O-])c1cc(Br)c(OCc2nnc(-c3ccccc3)o2)c(Br)c1 | inactive |  |
| Cc1ccc(CC2CC(=O)N(c3ccc(C)cc3)C2=O)cc1 (stereo not given) | inactive |  |
| Cc1cccc(NC(=O)c2cc(NC(=O)c3ccco3)ccc2N2CCCCC2)c1 | inconclusive: 3.16 µM [inhibitor, partial curve] |  |
| CCOc1cc(CNCCO)cc(Br)c1OCc1ccccc1Cl | inactive |  |
| O=c1cc(-c2ccc(O)cc2)oc2cc(O)c(C3OC(CO)C(O)C(O)C3O)c(O)c12 (stereo not given) | inconclusive: 28.2 µM [inhibitor, partial curve] |  |
| CC[n+]1ccc(C[n+]2ccccc2)c2ccccc21 | inconclusive: 25.1 µM [inhibitor, partial curve] |  |
| O=C(COc1nc2ccccc2nc1N1CCOCC1)Nc1cccc(S(=O)(=O)N2CCCCC2)c1 | inconclusive: 39.8 µM [inhibitor, single point] |  |
| CCOC(=O)C1=C(CSc2nc3c(cc2C#N)CN(C)CC3)OC(N)=C(C#N)C1c1ccc(Cl)cc1 (stereo not given) | inconclusive: 20 µM [inhibitor, partial curve] |  |
| Cc1cc(C)cc(-n2c(C)cc(C=C(C#N)C#N)c2C)c1 | inactive |  |
| COc1ccc(C(=O)CSc2nc3ccccc3n2CC(=O)NC(C)(C)C)cc1 | inactive |  |
| COc1ccc2nc(/C=N/NC(=O)[C@H](CCSC)NC(=O)OC(C)(C)C)ccc2c1 | inconclusive: 31.6 µM [inhibitor, partial curve] |  |
| CCCCCCCCN1C(=O)C(O)=C(C(C)=O)C1c1ccccn1 (stereo not given) | inactive |  |
| Cc1cccc(/N=C/c2c(C)[nH]n(-c3ccccc3)c2=O)n1 | inconclusive: 31.6 µM [inhibitor, single point] |  |
| CCOc1ccc(-n2nnnc2SCC(=O)NNC(=O)c2ccco2)cc1 | inactive |  |

— PubChem BioAssay AID2147 (National Center for Advancing Translational Sciences (NCATS), 2009)
